Each structure is given as a SMILES string. Hit rate of the full screen: of about 310,000 compounds, about 14,000 (4.5%) showed an effect of 50% or more. Effects have a minus sign here. Some of the results follow.
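Further: peak tail current of the secondary pulse compared with the same well before compound.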

Chain of human ether-à-go-go-related gene (hERG) potassium channel (Q12809 whole entry, looked up): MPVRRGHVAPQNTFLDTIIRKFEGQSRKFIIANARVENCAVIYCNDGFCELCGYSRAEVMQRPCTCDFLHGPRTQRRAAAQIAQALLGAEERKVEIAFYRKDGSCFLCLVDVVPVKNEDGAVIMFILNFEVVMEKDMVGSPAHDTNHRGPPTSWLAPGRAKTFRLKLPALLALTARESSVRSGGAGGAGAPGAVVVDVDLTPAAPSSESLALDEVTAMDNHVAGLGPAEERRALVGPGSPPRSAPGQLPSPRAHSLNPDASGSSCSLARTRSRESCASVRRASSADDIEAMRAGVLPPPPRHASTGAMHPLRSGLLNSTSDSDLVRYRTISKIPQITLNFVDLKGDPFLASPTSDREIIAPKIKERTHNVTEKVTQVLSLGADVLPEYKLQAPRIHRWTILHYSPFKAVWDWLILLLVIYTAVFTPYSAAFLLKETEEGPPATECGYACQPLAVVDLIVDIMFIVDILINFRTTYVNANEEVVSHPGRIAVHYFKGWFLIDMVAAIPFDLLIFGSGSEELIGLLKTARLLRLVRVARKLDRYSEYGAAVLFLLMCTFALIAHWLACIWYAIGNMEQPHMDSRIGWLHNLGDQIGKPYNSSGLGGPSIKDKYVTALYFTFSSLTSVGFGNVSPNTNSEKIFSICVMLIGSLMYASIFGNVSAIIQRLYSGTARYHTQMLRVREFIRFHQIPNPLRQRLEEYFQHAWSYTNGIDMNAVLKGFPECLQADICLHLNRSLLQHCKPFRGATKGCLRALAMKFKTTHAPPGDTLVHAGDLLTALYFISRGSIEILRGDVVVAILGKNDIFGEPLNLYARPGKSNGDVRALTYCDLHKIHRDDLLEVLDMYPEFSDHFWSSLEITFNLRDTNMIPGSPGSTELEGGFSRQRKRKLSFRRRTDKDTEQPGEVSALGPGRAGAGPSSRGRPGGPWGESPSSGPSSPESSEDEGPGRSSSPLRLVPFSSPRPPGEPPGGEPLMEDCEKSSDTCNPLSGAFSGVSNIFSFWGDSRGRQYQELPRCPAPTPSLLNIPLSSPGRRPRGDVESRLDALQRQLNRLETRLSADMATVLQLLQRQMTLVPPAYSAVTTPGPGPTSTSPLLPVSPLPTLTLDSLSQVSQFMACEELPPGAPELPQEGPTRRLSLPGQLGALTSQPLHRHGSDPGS

The assay addresses human ether-à-go-go-related gene (hERG) potassium channel (human, UniProt Q12809). Description: primary screen, population patch clamp on CHO cells stably expressing hERG.
With `Cc1ccc(OCC(=O)NCC(=O)Nc2ccc(F)c(F)c2F)c([N+](=O)[O-])n1`, the “hERG current change (%, negative = inhibition) at 10uM” value was -34.4%.
Take `O=c1nc(-c2ccccc2)c(-c2ccccc2)n[nH]1`: the “hERG current change (%, negative = inhibition) at 10uM” value is 20%.
As to `Cn1c2ccccc2c2ncn(CCN3CCOCC3)c(=O)c21`, the “hERG current change (%, negative = inhibition) at 10uM” value is reported as -4.89%.
The figure for `COc1ccc([C@H]2CC(=O)C=C(c3ccc(SC)cc3)C2)cc1OC` is 25.4%.
Consider `COc1ccc(Cn2c(N)c(C#N)c3nc4ccccc4nc32)cc1`, for which the “hERG current change (%, negative = inhibition) at 10uM” value came to 11.2%.
Consider `COc1ccccc1NS(=O)(=O)c1cccc(C(=O)NCC(c2ccccc2OC)N2CCCC2)c1` (stereo not shown), for which the “hERG current change (%, negative = inhibition) at 10uM” value was -12.9%.
The figure for `O=C(Nc1ccc2c(c1)OCO2)OCc1ccccc1` is -26.2%; for `Cc1ccccc1-c1noc(CCC(=O)NCCc2ccccc2)n1` it is 10.4%; for `CC1CCN(c2ccccc2NC(=O)c2cc3ccccc3o2)CC1` it is 25%.
The figure for `COc1ccc(Cl)cc1S(=O)(=O)NC(C)C(=O)NCc1ccncc1` (stereo not shown) is 10.3%; for `CCn1c(=O)ccc2cc([N+](=O)[O-])ccc21` it is 12.5%.
Take `O=C(c1ccc(Cl)c([N+](=O)[O-])c1)N(Cc1ccc(Cl)cc1)C1CCS(=O)(=O)C1` (stereo not shown): the “hERG current change (%, negative = inhibition) at 10uM” value is recorded as -31.4%.
Consider `O=C(c1cccs1)N1CCN(c2cccc(Cl)c2)CC1`, for which the “hERG current change (%, negative = inhibition) at 10uM” value is -16.5%.
For the compound `CCOc1ccc(C2C(C(=O)Nc3ccc(F)cc3)=C(C)Nc3nc(CCCO)nn32)cc1` (stereo not shown), the “hERG current change (%, negative = inhibition) at 10uM” value is given as -3.24%.
Take `Cc1ccc(S(=O)(=O)CCc2ccncc2)cc1`: the “hERG current change (%, negative = inhibition) at 10uM” value came to 25.4%.
For the compound `O=C(O)CN1C(=O)C2C3CC(C2C1=O)C1C(c2ccccc2)c2sc(=O)[nH]c2SC31` (stereo not shown), the “hERG current change (%, negative = inhibition) at 10uM” value is on record as 15%.
Regarding `Cn1cccc1C(=O)OCC(=O)N1CC(=O)Nc2ccccc21`, the “hERG current change (%, negative = inhibition) at 10uM” value stood at 0.467%.
`O=C(/C=C/c1c(Cl)cccc1Cl)N1CCOCC1`: the “hERG current change (%, negative = inhibition) at 10uM” value turned out to be 24.8%.
In the case of `CCOc1ncccc1C(=O)NCc1ccccc1F`, the “hERG current change (%, negative = inhibition) at 10uM” value is -8.05%.
Regarding `C=CCc1ccc(OCC(O)CN2CCN(c3ccccc3)CC2)c(OC)c1.Cl` (stereo not shown), the “hERG current change (%, negative = inhibition) at 10uM” value was -70.3%.
Take `Cc1cc(C)nc(NS(=O)(=O)c2ccc(NC(=O)C3(c4ccccc4)CCCC3)cc2)n1`: the “hERG current change (%, negative = inhibition) at 10uM” value is given as -16.9%.
Regarding `Cn1cc(S(=O)(=O)N2CCN(c3ccccc3)CC2)c(=O)n(C)c1=O`, the “hERG current change (%, negative = inhibition) at 10uM” value is listed as -3.38%.
For `Cc1ccc(C(=O)Oc2coc(CSc3nnc(NC(=O)c4cccs4)s3)cc2=O)cc1C` the value was -4%; for `CNCC(O)c1cc(F)c(OCc2ccccc2)c(OCc2ccccc2)c1F` (stereo not shown), -10.7%.
The figure for `Cc1ccc(CNC(=O)CCCC(=O)c2ccccc2)cc1` is -9.96%; for `C/C(CCc1ccc2c(c1)OCO2)=N\NC(=O)c1ccc(C)cc1C` it is 8.03%.
Consider `CCOc1cc(/C=N\NC(=O)c2ccc(NC(=O)C(C)(C)C)cc2)ccc1OC(=O)c1ccc(OC)cc1`, for which the “hERG current change (%, negative = inhibition) at 10uM” value amounted to 20.5%.
For the compound `O=C(COC(=O)[C@H](Cc1ccccc1)N1C(=O)c2ccccc2C1=O)Nc1ccc2c(c1)OCO2`, the “hERG current change (%, negative = inhibition) at 10uM” value is reported as -8.45%.
Regarding `Cn1c(Cc2cccs2)n[nH]c1=S`, the “hERG current change (%, negative = inhibition) at 10uM” value stood at 10.1%.
Take `Cc1cc(NC(=O)CSc2nnc(C3CC3)n2C)no1`: the “hERG current change (%, negative = inhibition) at 10uM” value was 22.4%.
For `COc1ccc(Cl)cc1C(=O)Nc1ccc(S(N)(=O)=O)cc1` the value was -1.91%.
For `CC(=O)O[C@H]1C[C@@]2(C)[C@@H](C[C@@H](O)[C@H]3[C@@]4(C)CC[C@@H](O)[C@@H](C)C4CC[C@@]32C)/C1=C(\CCC=C(C)C)C(=O)[O-].[Na+]` (stereo partly shown) the value was -0.0437%; for `C/C(=N\NS(=O)(=O)c1ccc(C)c([N+](=O)[O-])c1)c1cc2ccccc2o1`, -9.98%; for `COc1ccc(/C=C/C(=O)Nc2ccc(OC)cc2[N+](=O)[O-])cc1`, -5.97%.
In the case of `C=CCNC(=O)C1CC(=O)N(c2ccc(C)cc2)C1` (stereo not shown), the “hERG current change (%, negative = inhibition) at 10uM” value is listed as -16.1%.
On to `Cc1ccc(C(=O)N2CCCC(C(=O)c3ccc(Oc4ccccc4)cc3)C2)cn1` (stereo not shown), for which the “hERG current change (%, negative = inhibition) at 10uM” value is recorded as -41%.
For `O=C1Nc2ccc(F)cc2C12Nc1ccccc1-c1nnc(SCc3ccccc3)nc1O2` (stereo not shown) the value was -13.2%.
On to `CC(=O)Nc1ccc(NS(=O)(=O)c2c(Cl)cccc2Cl)cc1`, for which the “hERG current change (%, negative = inhibition) at 10uM” value is on record as -5.6%.
For the compound `COc1ccc(CCNC(=O)Cc2cc(OC)c(OC)cc2[N+](=O)[O-])cc1OC`, the “hERG current change (%, negative = inhibition) at 10uM” value was 3.56%.
For the compound `CCOc1ccc(C(CC(=O)O)NS(=O)(=O)c2ccc(C)cc2)cc1OC` (stereo not shown), the “hERG current change (%, negative = inhibition) at 10uM” value is listed as 10.3%.
Turning to `CSCCC(NC(=O)COc1ccccc1)C(=O)OC(C)C(=O)Nc1ccccc1C` (stereo not shown), the “hERG current change (%, negative = inhibition) at 10uM” value is -8.61%.
The figure for `Clc1ccc(CN2CCCCCCC2)cc1` is -33.1%; for `CN(C)CC/C=C1/c2ccc(F)cc2Sc2ccc(Cl)cc21.Cl` it is 5.06%.
Regarding `Cn1cccc1C(=O)NNC(=O)COc1ccccc1Cl`, the “hERG current change (%, negative = inhibition) at 10uM” value is recorded as 1.72%.
The figure for `CC(C)SCCCCOc1ccc2ccccc2c1` is -9.37%; for `CC1C/C(=N/NC(=O)c2ccc(CSc3nc4ccccc4[nH]3)cc2)CC(C)(C)C1` (stereo not shown) it is 10.4%; for `CC(NC(=O)c1cccs1)C(c1cccs1)N1CCN(Cc2ccccc2)CC1` (stereo not shown) it is -72.7%.
The figure for `Cc1ccc(C2CC(c3ccccc3)=NN2C(=O)CSc2nnc(-c3ccncc3)n2C)o1` (stereo not shown) is -13.2%.
For `O=C(Nc1nnc(CCc2ccccc2)s1)C1CCCO1` (stereo not shown) the value was -12.7%.
With `O=C(NC(=O)N1CCN(C(c2ccccc2)c2ccccc2)CC1)c1ccccc1`, the “hERG current change (%, negative = inhibition) at 10uM” value is given as -4.96%.
For `CCOC(=O)c1cc(-c2csc(-c3ccc(C(C)(C)C)cc3)n2)on1` the value was 21.5%; for `Cc1ccc(C(C#N)c2ccc(C(=O)c3ccc(F)cc3)cc2)cc1` (stereo not shown), -1.77%; for `C[N+]1(CCn2ccc3ccccc32)CCCCC1.[I-]`, 18.3%.
With `S=C1NCCNC(=S)NCCOCCOCCOCCN1`, the “hERG current change (%, negative = inhibition) at 10uM” value is on record as 15.2%.
For `O=C(N/N=C/c1ccccn1)c1cc(-c2cccc3ccccc23)n[nH]1`, the “hERG current change (%, negative = inhibition) at 10uM” value is reported as -18.3%.

These data come from article PMC4336329 (PLoS ONE, 2015).
